Results published in PubChem BioAssay AID485294 (National Center for Advancing Translational Sciences (NCATS), 2010).
The whole screen tested about 370,000 compounds, of which about 150 (0.041%) were called active. The shares of active, inactive and inconclusive entries below differ from those in the screen. Calls follow the shape of the dose curve; as a rule, active = well fitted inhibition curve with a large enough effect; inconclusive = small, poorly fitted or top-dose-only effect; inactive = flat fitted curve, though single readings scatter. No potency is given beside an inconclusive call; the fits are too rough.

Molecular target: Beta-lactamase (Escherichia coli (strain K12)) (UniProt P00811)
Chain of UniProt P00811 (P00811 whole entry, looked up): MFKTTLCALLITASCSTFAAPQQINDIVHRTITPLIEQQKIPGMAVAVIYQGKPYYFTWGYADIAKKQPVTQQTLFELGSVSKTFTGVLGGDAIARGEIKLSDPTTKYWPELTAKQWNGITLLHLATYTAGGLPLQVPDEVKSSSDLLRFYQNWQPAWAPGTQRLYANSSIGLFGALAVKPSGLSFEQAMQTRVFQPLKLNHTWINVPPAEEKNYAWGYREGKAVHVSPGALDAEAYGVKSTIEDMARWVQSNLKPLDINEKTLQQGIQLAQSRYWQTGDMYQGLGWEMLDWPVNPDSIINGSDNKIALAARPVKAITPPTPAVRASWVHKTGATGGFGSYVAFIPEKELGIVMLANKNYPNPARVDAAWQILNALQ
Experiment: qHTS Inhibitors of AmpC Beta-Lactamase (assay with detergent); also: nearly all actives have a fitted effect of over 25% in size
Conditions: AmpC hydrolysis of nitrocefin, absorbance 480 nm, 0.01% Triton; series mostly up to 114 µM
Procedure, shortened: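 20 mM phosphate pH 7.0 + 0.01% (detergent screen) or 0.0001% Triton X-100; 5.3 nM AmpC reagent; cpd preinc 15 min RT; nitrocefin (800 uM stock) to start; A480 q20 s × 4 min; Activity was normalised to no-enzyme and no-compound control wells.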
Potency is read from the fitted curve at half-maximal effect; tags tell the direction and shape of the fitted curve.

| Structure (SMILES) | Potency |
| --- | --- |
| O=C1CC(c2ccco2)Cc2nc(NCC3CCCO3)ncc21 (stereo not drawn) | inconclusive [inhibitor, full curve, poor fit] |
| O=C(O)c1cccc(-n2cc(-c3cccc(C(F)(F)F)c3)cn2)c1 | inactive |
| CCN(C(=O)c1ccnn1C)c1ccccc1 | inconclusive [inhibitor, full curve, poor fit] |
| COc1ccc2nc(N/C(N)=N/S(C)(=O)=O)nc(C)c2c1 | inactive |
| CCc1ccc(NC(=O)N2CCN(c3ccccc3)CC2)cc1 | inconclusive [inhibitor, single point] |
| Cc1ccccc1OCC(=O)Nc1ccc(C)c(S(=O)(=O)N2CCCCCC2)c1 | inconclusive [inhibitor, full curve] |
| N#Cc1ccc(NC(=S)NCCN2CCOCC2)cc1 | inconclusive [inhibitor, partial curve] |
| O=C(Nc1nnc(-c2ccccc2)o1)c1cccc(N2C(=O)CCC2=O)c1 | inactive |
| Cc1ccc(C(=O)Nc2ccccc2C(=O)NCc2cccnc2)cc1 | inactive |
| O=C(NCC(c1ccco1)N1CCCC1)c1cc2ccccc2s1 (stereo not drawn) | inconclusive [inhibitor, single point] |
| COc1ccc(NC(=S)N2CCC(NC(=O)c3ccc(OC)cc3)CC2)cc1 | inconclusive [inhibitor, full curve, poor fit] |
| CC(=O)c1cccc(NC(=O)Nc2cc3sccc3n2C)c1 | inconclusive [inhibitor, full curve, poor fit] |
| Cc1oc(-c2ccccc2F)nc1CS(=O)CC(=O)NCc1ccc2c(c1)OCO2 (stereo not drawn) | inconclusive [inhibitor, full curve] |
| CC1CCN(C(=O)CCCOc2cc(=O)n(C)c3ccccc23)CC1 | inactive |
| CCN1CCN(c2nc3c(c(=O)n(C)c(=O)n3C)n2Cc2cccc3ccccc23)CC1 | inactive |
| O=C(NCCO)Nc1ccc2nsnc2c1 | inconclusive [inhibitor, full curve, poor fit] |
| COc1cc(OC)cc(C(=O)N2CCC(n3c(C)nc4cc(F)ccc43)CC2)c1 | inactive |
| C=CCn1c(COC)nnc1SCC(=O)c1ccc(F)cc1 | inactive |
| COc1ccc(-n2nc(C(=O)NCC(=O)Nc3cc(OC)ccc3OC)c3ccccc3c2=O)cc1 | inconclusive [inhibitor, full curve] |
| Cc1cc(-c2ccccc2)nc2c(Br)c(=O)[nH]n12 | inconclusive [inhibitor, partial curve] |
| CCC1(COC(NC(=O)c2cccnc2)(C(F)(F)F)C(F)(F)F)COC1 | inconclusive [inhibitor, full curve, poor fit] |
| COC(=O)c1ccc(Sc2ccc(F)cc2)c(N)c1 | inconclusive [inhibitor, full curve, poor fit] |
| CCCCOCCCn1c(N)c(C(=O)OCCOC)c2nc3ccccc3nc21 | inactive |

| Structure (SMILES) | Potency |
| --- | --- |
| COc1ccc(-c2nnc(-c3ccccc3)o2)cc1OC | inconclusive [inhibitor, full curve] |
| CCc1nnc(NC(=O)CN2CCC(O)(c3ccccc3OC)CC2)s1 | inconclusive [inhibitor, full curve, poor fit] |
| CC1Cc2ccccc2N1C(=O)CN1CCc2ccccc2C1 (stereo not drawn) | inconclusive [inhibitor, full curve] |
| O=C(CCN=C1NS(=O)(=O)c2ccccc21)OCc1c(F)c(F)c(F)c(F)c1F | inconclusive [inhibitor, full curve, poor fit] |
| CCc1ccc(CN2CCN(S(=O)(=O)Cc3ccccc3)CC2)cc1 | inconclusive [inhibitor, single point] |
| COC(=O)Nc1ncc(CN2CCc3ccccc3C2)s1 | inconclusive [inhibitor, full curve] |
| Cn1nnc2c(sc3nc(N4CCOCC4)c4c(c32)CCCC4)c1=O | inconclusive [inhibitor, full curve, poor fit] |
| CC1=C(C(=O)OC(C)C)C(c2ccc(Cl)cc2)n2c(s/c(=C\c3ccc(OCC(=O)O)cc3)c2=O)=N1 (stereo not drawn) | inconclusive [inhibitor, full curve, poor fit] |
| CC1CC(C)CN(C(=O)CSc2nc3ccsc3c(=O)n2Cc2ccccn2)C1 (stereo not drawn) | inconclusive [inhibitor, full curve, poor fit] |
| COc1ccccc1N1CCN(c2ncnc3c2c(-c2ccccc2)cn3-c2cccc(C)c2)CC1 | inactive |
| COc1cc2c(cc1OC)C(c1ccccc1)N(C(=O)c1cccc(S(C)(=O)=O)c1)CC2 (stereo not drawn) | inconclusive [inhibitor, partial curve, poor fit] |
| COc1cc(S(=O)(=O)N(Cc2ccccc2)CC2CCCO2)ccc1-n1cnnn1 (stereo not drawn) | inactive |
| O=C(NCC(c1cccnc1)N1CCN(c2ccc(F)cc2)CC1)c1cccc(Cl)c1 (stereo not drawn) | inconclusive [inhibitor, partial curve, poor fit] |
| Cc1[nH]c2ccccc2c1C(=O)COC(=O)C1CC(=O)N(Cc2ccccc2)C1 (stereo not drawn) | inactive |
| CC(C)c1ccc(-c2noc(C3CCCN(C(=O)c4ccc(F)cc4F)C3)n2)cc1 (stereo not drawn) | inconclusive [inhibitor, single point] |
| CC(C)CCNC(=O)c1ccc2c(c1)ncn2C1CCCC1 | inactive |
| COc1ccc(-n2nc(N)c(C(N)=O)n2)cc1 | inactive |
| O=c1n(S(=O)(=O)c2cccc3cccnc23)c2ccccc2n1S(=O)(=O)c1cccc2cccnc12 | inconclusive [inhibitor, single point] |
| O=C(NNC(=O)c1ccccc1O)c1ccc(S(=O)(=O)Nc2ccccc2F)cc1 | inactive |
| CCN(C(=O)CSc1nnnn1C)C1CCS(=O)(=O)C1 (stereo not drawn) | inconclusive [inhibitor, full curve] |
| O=C(Cc1ccc(S(=O)(=O)N2CCOCC2)s1)Nc1ccc(S(=O)(=O)N2CCCCC2)cc1 | inactive |
| CCc1nnc(NC(=O)c2sc3nc4c(cc3c2N)CCCCC4)s1 | inactive |
| O=C(c1ccc2c(c1)OCO2)C1CCCN(Cc2ccccc2OC(F)F)C1 (stereo not drawn) | inconclusive [inhibitor, full curve] |

| Structure (SMILES) | Potency |
| --- | --- |
| O=C(Nc1ccccc1)c1ccc(CN2CCc3ccccc3C2)cc1 | inconclusive [inhibitor, single point] |
| O=C(NCC(=O)N(c1ccc(Cl)cc1)C(C(=O)NC1CCCC1)c1cccnc1)c1ccco1 (stereo not drawn) | inconclusive [inhibitor, single point] |
| N#CC1=C(N)C(C#N)(C#N)[C@H](c2ccncc2)[C@H]2CC3(CC=C12)OCCO3 | inconclusive [inhibitor, partial curve, poor fit] |
| Cc1cc(C[n+]2ccccc2)c2nsnc2c1 | inconclusive [inhibitor, full curve, poor fit] |
| CCN(CC)S(=O)(=O)c1ccc(NC(=O)COC(=O)CCc2cc(OC)c(OC)c(OC)c2)cc1 | inconclusive [inhibitor, partial curve, poor fit] |
| CCc1ccc(NC(=O)C(C)OC(=O)CN2C(=O)NC3(CCCC3)C2=O)cc1 (stereo not drawn) | inconclusive [inhibitor, partial curve, poor fit] |
| O=c1cc(OCc2ccccc2)cc[nH]1 | inconclusive [inhibitor, full curve, poor fit] |
| O=C(c1ccc(Br)cc1)N(C1=NCCCCS1)c1ccccc1 | inactive |
| COc1ccc(-c2cc(=O)oc3cc(OCc4nn[nH]n4)ccc23)cc1 | inconclusive [inhibitor, full curve] |
| Cc1ccc(C(=O)NNc2c3ccccc3nc3ccccc23)cc1 | inactive |
| CC1CCN(c2ncnc3nc[nH]c23)CC1 | inconclusive [inhibitor, full curve, poor fit] |
| COc1ccc(NC(=O)C2CCCN2c2nn3c(=O)cc(C)nc3s2)cc1 (stereo not drawn) | inconclusive [inhibitor, partial curve] |
| Cc1cccc([C@@H]2[C@@H]3C(=O)N(Cc4ccccc4)C(=O)[C@@H]3[C@]3(Cc4ccccc4)C(=O)N(c4ccc(C(F)(F)F)cc4)C(=O)N23)c1 | inconclusive [inhibitor, full curve] |
| O=C1CCC(=O)N1OCCCOc1ccc2c(c1)CCC2 | inconclusive [inhibitor, single point] |
| O=C(Nc1ccc(O)cc1)c1ccc(C(=O)c2ccccc2)o1 | inactive |
| Cc1cccc(NC(=O)/C(C#N)=C/c2ccc(C)o2)c1 | inactive |
| O=C(Nc1cccc2ncccc12)c1cccc(Br)c1 | inactive |
| COC(=O)c1ccccc1NC(=O)c1nc2nc(C)cc(C(F)F)n2n1 | inconclusive [inhibitor, partial curve] |
| CC(=O)Nc1ccc(OC(F)(F)C(F)C(F)(F)F)c(NC(C)=O)c1 (stereo not drawn) | inconclusive [inhibitor, partial curve, poor fit] |
| Cc1cccc(C(=O)NCCNC(=O)c2ccccn2)c1 | inconclusive [inhibitor, full curve, poor fit] |
| COCCn1nnnc1C(c1ccccc1)N1CCN(Cc2ccc3c(c2)OCO3)CC1 (stereo not drawn) | inconclusive [inhibitor, full curve, poor fit] |
| O=c1c2oc3ccccc3c2n(Cc2cccc(F)c2)c(=O)n1Cc1ccc2c(c1)OCO2 | inactive |
